Measurements published in publication PMC4251979.
Changes are numbered by the printed parent chain. These are yes or no findings as the source states them, for the method shown. Binding seen in cells or lysates may run through a third protein. Sequences can lack the tags named with a protein.

Chains of the proteins cited; added tags and fusions are not shown.
UniProt Q8IY92: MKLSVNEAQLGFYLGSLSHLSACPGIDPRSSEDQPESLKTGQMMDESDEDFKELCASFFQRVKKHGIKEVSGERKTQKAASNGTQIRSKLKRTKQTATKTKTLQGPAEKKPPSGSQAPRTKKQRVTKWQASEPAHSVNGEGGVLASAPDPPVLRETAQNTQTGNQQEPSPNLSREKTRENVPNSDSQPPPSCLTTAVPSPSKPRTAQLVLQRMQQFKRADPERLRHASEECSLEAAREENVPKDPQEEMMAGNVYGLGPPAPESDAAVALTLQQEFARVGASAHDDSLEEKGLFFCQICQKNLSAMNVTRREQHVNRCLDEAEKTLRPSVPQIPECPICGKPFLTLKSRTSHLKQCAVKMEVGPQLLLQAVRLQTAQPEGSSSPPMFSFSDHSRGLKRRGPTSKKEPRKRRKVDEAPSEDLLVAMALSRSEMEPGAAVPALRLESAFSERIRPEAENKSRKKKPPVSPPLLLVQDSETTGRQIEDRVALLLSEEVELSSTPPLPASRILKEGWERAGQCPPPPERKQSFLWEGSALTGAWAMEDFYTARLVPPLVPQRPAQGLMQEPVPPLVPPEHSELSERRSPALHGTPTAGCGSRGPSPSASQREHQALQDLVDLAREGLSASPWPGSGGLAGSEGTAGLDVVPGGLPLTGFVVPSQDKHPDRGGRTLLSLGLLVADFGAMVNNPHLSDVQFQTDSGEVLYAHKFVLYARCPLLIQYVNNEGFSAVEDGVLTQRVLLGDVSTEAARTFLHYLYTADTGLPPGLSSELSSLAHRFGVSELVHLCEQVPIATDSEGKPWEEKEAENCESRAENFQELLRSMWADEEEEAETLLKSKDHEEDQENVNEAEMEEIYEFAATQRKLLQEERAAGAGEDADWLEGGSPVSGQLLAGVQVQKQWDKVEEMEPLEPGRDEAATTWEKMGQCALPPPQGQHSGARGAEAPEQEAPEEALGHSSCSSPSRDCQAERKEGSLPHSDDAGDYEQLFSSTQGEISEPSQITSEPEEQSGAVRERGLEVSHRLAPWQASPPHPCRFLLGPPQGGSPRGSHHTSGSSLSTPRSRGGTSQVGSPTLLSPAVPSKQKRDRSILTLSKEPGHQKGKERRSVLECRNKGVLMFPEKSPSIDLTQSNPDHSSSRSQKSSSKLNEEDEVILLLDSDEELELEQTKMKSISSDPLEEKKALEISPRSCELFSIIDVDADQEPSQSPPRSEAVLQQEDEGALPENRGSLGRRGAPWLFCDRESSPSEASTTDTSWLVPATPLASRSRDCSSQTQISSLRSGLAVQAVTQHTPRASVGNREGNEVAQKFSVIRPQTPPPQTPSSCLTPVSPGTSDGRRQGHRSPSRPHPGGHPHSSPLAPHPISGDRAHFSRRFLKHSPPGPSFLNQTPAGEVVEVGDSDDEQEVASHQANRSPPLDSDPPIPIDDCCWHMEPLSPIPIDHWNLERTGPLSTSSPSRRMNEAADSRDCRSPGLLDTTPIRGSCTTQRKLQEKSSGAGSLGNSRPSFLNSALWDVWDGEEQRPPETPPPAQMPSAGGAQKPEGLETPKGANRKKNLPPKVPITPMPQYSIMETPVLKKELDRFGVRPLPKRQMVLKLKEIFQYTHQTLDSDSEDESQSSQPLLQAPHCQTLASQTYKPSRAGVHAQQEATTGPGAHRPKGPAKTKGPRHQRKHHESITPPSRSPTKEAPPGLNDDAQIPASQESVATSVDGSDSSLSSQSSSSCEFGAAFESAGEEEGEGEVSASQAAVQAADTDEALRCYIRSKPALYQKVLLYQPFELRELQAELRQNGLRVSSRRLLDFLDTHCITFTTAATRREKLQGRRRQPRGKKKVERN

How the values were obtained:
Test in all cases: co-IP; HEK293 cells transiently transfected with FLAG-MUS81 (wild type or mutants); extracts immunoprecipitated with anti-FLAG (FLAG-M2 agarose beads), western blotting
[1] = target: T1, full-length FLAG-MUS81 L25K (human) (UniProt Q96NY9)
T1 sequence: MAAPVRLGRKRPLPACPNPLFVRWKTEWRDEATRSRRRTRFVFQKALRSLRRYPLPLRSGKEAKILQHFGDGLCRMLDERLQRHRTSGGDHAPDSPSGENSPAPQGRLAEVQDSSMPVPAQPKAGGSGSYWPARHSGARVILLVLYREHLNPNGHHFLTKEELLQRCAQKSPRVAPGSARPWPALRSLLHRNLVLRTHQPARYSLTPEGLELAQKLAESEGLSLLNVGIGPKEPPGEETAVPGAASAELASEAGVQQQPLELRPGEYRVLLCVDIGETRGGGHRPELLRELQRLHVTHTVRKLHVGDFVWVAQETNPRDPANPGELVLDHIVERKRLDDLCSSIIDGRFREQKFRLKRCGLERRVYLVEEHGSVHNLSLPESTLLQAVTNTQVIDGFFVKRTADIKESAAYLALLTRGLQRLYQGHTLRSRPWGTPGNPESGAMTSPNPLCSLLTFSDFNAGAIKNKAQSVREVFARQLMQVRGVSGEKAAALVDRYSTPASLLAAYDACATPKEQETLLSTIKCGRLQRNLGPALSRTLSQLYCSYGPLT

[2] = target: T2, full-length FLAG-MUS81 L47K (human) (UniProt Q96NY9)
T2 sequence: T1 sequence with K25L, L47K

[3] = target: T3, full-length FLAG-MUS81 L25P (human) (UniProt Q96NY9)
T3 sequence: T1 sequence with K25P

Measured: binding

endogenous SLX4 (human cells) (from UniProt Q8IY92 1-1834)
no binding: all assays above
